{
  "source": "patent US20190112349A1",
  "binders": {"B1": {"name": "rituximab with heavy chain variant 176 (SEQ ID NO: 29) (antibody, part only; not given: rituximab light chain, part only)", "heavy": "QVQLQQPGAELVKPGASVKMSCKASGYTFTSYNMHWVKQTPGRGLEWIGAIYPGNGDTSYNQKFKGKATLTADKSSSTAYMQLSSLTSEDSAVYYCARSTYYGGDWYFNVWGAGTTVTVSA[not shown - human IgG1 constant region with changes]"}},
  "experiment_in_all_cases": "cell-based or functional assay",
  "key": {"ACTR variant 130": {"biological_target": "ACTR variant 130"}, "ACTR variant 113 [1]": {"biological_target": "ACTR variant 113", "sequence (chain, as listed by the source mutant limits assumed)": "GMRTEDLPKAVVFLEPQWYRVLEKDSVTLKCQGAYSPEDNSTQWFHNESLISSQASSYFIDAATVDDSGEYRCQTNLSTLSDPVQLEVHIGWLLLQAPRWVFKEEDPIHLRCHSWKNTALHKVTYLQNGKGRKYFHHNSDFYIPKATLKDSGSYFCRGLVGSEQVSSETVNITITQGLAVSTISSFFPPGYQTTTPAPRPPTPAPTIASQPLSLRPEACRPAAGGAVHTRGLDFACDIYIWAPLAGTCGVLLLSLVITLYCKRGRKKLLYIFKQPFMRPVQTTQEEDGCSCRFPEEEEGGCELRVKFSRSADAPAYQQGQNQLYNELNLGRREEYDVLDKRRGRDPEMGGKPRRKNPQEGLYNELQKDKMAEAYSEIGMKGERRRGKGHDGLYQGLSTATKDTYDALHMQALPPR"}, "ACTR variant 115 [2]": {"biological_target": "ACTR variant 115", "sequence (chain, as listed by the source mutant limits assumed)": "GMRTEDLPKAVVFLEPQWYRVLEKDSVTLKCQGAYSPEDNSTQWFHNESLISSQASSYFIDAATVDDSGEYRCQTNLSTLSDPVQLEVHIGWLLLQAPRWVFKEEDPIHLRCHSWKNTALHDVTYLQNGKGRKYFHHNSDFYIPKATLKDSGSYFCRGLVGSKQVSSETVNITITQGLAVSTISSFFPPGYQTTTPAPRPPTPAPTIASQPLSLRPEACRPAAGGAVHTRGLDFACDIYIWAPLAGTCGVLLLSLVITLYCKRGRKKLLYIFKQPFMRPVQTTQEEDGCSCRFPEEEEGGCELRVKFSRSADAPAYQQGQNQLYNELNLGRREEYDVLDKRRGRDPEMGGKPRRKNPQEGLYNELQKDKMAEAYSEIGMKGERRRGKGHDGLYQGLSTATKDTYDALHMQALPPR"}, "ACTR variant 128": {"biological_target": "ACTR variant 128", "sequence (chain, as listed by the source mutant limits assumed)": "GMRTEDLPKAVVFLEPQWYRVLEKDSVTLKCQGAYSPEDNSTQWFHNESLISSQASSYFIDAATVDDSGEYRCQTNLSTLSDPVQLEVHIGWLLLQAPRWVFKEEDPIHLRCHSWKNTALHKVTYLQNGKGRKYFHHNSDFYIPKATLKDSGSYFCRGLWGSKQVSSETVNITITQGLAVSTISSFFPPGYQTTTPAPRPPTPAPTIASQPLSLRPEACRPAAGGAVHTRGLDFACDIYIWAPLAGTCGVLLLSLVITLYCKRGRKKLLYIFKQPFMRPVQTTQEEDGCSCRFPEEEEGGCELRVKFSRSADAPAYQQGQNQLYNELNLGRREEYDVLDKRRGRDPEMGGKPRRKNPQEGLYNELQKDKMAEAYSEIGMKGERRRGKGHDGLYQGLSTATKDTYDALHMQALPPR"}, "ACTR variant 127": {"biological_target": "ACTR variant 127"}, "ACTR variant 116 [3]": {"biological_target": "ACTR variant 116", "sequence (chain, as listed by the source mutant limits assumed)": "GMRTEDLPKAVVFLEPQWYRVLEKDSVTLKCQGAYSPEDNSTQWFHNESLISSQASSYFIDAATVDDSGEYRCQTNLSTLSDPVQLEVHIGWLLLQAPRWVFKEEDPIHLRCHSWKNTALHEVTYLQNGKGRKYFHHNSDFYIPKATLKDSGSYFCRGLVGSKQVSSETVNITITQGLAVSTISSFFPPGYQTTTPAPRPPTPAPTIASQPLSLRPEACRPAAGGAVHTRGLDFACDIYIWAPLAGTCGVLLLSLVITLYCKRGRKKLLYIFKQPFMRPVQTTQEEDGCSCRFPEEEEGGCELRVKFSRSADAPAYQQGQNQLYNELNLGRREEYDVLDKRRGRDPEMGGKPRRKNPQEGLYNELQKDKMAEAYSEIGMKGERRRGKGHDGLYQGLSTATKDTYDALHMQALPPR"}, "ACTR variant 102": {"biological_target": "ACTR variant 102", "sequence (chain, as listed by the source mutant limits assumed)": "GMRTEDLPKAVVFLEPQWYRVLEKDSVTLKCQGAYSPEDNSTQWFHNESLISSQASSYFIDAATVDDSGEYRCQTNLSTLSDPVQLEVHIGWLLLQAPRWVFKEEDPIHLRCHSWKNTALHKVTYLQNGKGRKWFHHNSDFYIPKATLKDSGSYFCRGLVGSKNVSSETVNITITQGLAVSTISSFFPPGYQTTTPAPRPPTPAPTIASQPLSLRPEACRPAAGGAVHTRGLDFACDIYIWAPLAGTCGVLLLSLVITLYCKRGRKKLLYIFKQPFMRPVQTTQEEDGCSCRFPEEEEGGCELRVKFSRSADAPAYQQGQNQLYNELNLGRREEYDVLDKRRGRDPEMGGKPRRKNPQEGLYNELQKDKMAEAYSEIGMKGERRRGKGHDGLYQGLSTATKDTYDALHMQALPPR"}, "ACTR variant 110": {"biological_target": "ACTR variant 110"}, "ACTR variant 112 [4]": {"biological_target": "ACTR variant 112", "sequence (chain, as listed by the source mutant limits assumed)": "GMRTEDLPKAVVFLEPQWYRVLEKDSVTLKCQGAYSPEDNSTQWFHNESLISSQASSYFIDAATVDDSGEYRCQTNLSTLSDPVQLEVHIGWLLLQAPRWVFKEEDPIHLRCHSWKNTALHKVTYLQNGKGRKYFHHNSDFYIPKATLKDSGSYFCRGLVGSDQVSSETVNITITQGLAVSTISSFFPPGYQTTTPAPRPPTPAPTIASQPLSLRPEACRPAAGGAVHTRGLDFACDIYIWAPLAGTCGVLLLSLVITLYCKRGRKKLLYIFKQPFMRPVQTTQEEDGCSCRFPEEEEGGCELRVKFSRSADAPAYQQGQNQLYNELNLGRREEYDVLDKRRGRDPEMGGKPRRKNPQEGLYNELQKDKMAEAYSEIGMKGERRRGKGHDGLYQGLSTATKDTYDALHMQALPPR"}, "ACTR variant 92": {"biological_target": "ACTR variant 92"}, "ACTR variant 94": {"biological_target": "ACTR variant 94", "sequence (chain, as listed by the source mutant limits assumed)": "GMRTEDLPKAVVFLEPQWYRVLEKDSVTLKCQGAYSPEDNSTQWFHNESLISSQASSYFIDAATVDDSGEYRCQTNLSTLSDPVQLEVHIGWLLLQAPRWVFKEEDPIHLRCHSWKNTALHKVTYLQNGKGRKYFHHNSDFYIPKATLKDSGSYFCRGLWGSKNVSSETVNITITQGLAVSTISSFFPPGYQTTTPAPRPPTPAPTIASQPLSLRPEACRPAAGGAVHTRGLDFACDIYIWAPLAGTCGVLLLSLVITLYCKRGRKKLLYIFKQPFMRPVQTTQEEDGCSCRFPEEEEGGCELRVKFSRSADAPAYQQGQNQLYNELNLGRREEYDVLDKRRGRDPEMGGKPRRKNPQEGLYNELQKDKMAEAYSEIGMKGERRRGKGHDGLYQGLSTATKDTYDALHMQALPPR"}, "ACTR variant 26": {"biological_target": "ACTR variant 26", "sequence (chain, as listed by the source mutant limits assumed)": "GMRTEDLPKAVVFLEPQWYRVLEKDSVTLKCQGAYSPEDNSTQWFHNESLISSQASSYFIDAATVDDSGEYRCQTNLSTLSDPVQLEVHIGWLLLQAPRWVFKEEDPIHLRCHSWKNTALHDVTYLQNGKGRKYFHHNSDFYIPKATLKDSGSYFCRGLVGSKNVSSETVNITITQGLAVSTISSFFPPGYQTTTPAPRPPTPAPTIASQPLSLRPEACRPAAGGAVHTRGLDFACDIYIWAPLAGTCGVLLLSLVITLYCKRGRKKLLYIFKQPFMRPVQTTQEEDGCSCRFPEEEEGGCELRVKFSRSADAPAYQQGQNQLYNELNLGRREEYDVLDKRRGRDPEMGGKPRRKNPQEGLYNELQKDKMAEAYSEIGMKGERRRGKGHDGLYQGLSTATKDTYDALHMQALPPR"}, "ACTR variant 126": {"biological_target": "ACTR variant 126"}, "ACTR variant 114 [5]": {"biological_target": "ACTR variant 114", "sequence (chain, as listed by the source mutant limits assumed)": "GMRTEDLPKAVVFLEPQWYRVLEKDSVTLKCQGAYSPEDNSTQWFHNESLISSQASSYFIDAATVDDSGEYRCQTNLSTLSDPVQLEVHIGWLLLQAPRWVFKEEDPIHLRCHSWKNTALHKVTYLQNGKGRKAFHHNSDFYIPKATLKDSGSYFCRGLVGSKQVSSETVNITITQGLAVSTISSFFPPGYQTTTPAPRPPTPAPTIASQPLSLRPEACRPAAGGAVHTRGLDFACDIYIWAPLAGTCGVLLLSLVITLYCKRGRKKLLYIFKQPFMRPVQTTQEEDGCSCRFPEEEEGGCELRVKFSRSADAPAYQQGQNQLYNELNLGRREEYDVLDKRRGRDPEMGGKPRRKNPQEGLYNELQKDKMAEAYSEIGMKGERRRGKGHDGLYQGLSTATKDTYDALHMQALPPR"}, "ACTR variant 103 [6]": {"biological_target": "ACTR variant 103", "sequence (chain, as listed by the source mutant limits assumed)": "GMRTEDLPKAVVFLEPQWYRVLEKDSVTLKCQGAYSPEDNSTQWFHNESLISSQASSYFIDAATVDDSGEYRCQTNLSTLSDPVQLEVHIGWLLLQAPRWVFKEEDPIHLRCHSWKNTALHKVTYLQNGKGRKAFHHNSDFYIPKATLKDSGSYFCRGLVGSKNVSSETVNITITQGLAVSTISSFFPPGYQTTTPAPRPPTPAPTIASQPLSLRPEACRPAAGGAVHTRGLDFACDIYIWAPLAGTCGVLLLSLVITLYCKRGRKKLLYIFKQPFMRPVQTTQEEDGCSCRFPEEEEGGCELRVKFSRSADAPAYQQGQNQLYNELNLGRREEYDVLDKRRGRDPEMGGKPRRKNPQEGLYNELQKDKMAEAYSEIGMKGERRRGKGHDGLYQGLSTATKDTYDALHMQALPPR"}, "ACTR variant 129": {"biological_target": "ACTR variant 129"}, "ACTR variant 93": {"biological_target": "ACTR variant 93"}, "ACTR variant 131": {"biological_target": "ACTR variant 131", "sequence (chain, as listed by the source mutant limits assumed)": "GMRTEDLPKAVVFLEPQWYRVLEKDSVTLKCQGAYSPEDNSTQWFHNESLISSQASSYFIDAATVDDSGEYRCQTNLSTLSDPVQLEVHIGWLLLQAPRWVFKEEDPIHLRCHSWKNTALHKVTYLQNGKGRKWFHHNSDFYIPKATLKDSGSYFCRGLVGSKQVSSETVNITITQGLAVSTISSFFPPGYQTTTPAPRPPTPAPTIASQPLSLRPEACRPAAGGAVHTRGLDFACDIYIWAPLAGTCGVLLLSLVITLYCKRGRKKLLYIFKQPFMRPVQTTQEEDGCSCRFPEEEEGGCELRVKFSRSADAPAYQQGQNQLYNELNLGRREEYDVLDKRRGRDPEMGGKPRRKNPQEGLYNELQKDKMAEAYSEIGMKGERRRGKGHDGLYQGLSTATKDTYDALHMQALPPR"}, "ACTR variant 113 [7]": {"biological_target": "ACTR variant 113", "remark": "listed apart in the source"}, "ACTR variant 115 [8]": {"biological_target": "ACTR variant 115", "remark": "listed apart in the source"}, "ACTR variant 116 [9]": {"biological_target": "ACTR variant 116", "remark": "listed apart in the source"}, "ACTR variant 112 [10]": {"biological_target": "ACTR variant 112", "remark": "listed apart in the source"}, "ACTR variant 114 [11]": {"biological_target": "ACTR variant 114", "remark": "listed apart in the source"}, "ACTR variant 103 [12]": {"biological_target": "ACTR variant 103", "remark": "listed apart in the source"}},
  "note": "Read-outs that look alike come from different tables or passages of the source.",
  "data": [
    {"binder": "B1", "values": [
      {"measurement": "Jurkat NFAT luciferase EC50", "setting": "ACTR variant 130", "result": 0.55, "unit": "nM"},
      {"measurement": "Jurkat NFAT luciferase maximal luminescence (curve fit) (luminescence units)", "setting": "ACTR variant 130", "result": 70600},
      {"measurement": "luminescence at highest antibody concentration tested (EC50 NA) (luminescence units)", "setting": "ACTR variant 113 [1]", "result": 14200},
      {"measurement": "Jurkat NFAT luciferase EC50", "setting": "ACTR variant 115 [2]", "result": 2.21, "unit": "nM"},
      {"measurement": "Jurkat NFAT luciferase maximal luminescence (curve fit) (luminescence units)", "setting": "ACTR variant 115 [2]", "result": 113000},
      {"measurement": "Jurkat NFAT luciferase EC50", "setting": "ACTR variant 128", "result": 0.94, "unit": "nM"},
      {"measurement": "Jurkat NFAT luciferase maximal luminescence (curve fit) (luminescence units)", "setting": "ACTR variant 128", "result": 113000},
      {"measurement": "Jurkat NFAT luciferase EC50", "setting": "ACTR variant 127", "result": 1.69, "unit": "nM"},
      {"measurement": "Jurkat NFAT luciferase maximal luminescence (curve fit) (luminescence units)", "setting": "ACTR variant 127", "result": 106000},
      {"measurement": "Jurkat NFAT luciferase EC50", "setting": "ACTR variant 116 [3]", "result": 6.96, "unit": "nM"},
      {"measurement": "Jurkat NFAT luciferase maximal luminescence (curve fit) (luminescence units)", "setting": "ACTR variant 116 [3]", "result": 84900},
      {"measurement": "IL2 release EC50", "setting": "ACTR variant 102", "result": 0.25, "unit": "nM"},
      {"measurement": "Jurkat NFAT luciferase EC50", "setting": "ACTR variant 102", "result": 0.29, "unit": "nM"},
      {"measurement": "Jurkat NFAT luciferase maximal luminescence (curve fit) (luminescence units)", "setting": "ACTR variant 102", "result": 114000},
      {"measurement": "maximum IL2 (curve fit)", "setting": "ACTR variant 102", "result": 2600, "unit": "pg/mL"},
      {"measurement": "luminescence at highest antibody concentration tested (EC50 NA) (luminescence units)", "setting": "ACTR variant 110", "result": 1200},
      {"measurement": "luminescence at highest antibody concentration tested (EC50 NA) (luminescence units)", "setting": "ACTR variant 112 [4]", "result": 19800},
      {"measurement": "luminescence at highest antibody concentration tested (EC50 NA) (luminescence units)", "setting": "ACTR variant 92", "result": 5440},
      {"measurement": "IL2 release EC50", "setting": "ACTR variant 94", "result": 0.92, "unit": "nM"},
      {"measurement": "Jurkat NFAT luciferase EC50", "setting": "ACTR variant 94", "result": 2.14, "unit": "nM"},
      {"measurement": "Jurkat NFAT luciferase maximal luminescence (curve fit) (luminescence units)", "setting": "ACTR variant 94", "result": 68000},
      {"measurement": "maximum IL2 (curve fit)", "setting": "ACTR variant 94", "result": 2080, "unit": "pg/mL"},
      {"measurement": "Jurkat NFAT luciferase EC50", "setting": "ACTR variant 26", "result": 4.79, "unit": "nM"},
      {"measurement": "Jurkat NFAT luciferase EC50 (virally transduced cells)", "setting": "ACTR variant 26", "result": 2.8, "unit": "nM"},
      {"measurement": "Jurkat NFAT luciferase maximal luminescence (curve fit) (luminescence units)", "setting": "ACTR variant 26", "result": 39200},
      {"measurement": "luminescence at highest antibody concentration tested (EC50 NA) (luminescence units)", "setting": "ACTR variant 126", "result": 11600},
      {"measurement": "Jurkat NFAT luciferase EC50", "setting": "ACTR variant 114 [5]", "result": 3.3, "unit": "nM"},
      {"measurement": "Jurkat NFAT luciferase maximal luminescence (curve fit) (luminescence units)", "setting": "ACTR variant 114 [5]", "result": 151000},
      {"measurement": "IL2 release EC50", "setting": "ACTR variant 103 [6]", "result": 1.29, "unit": "nM"},
      {"measurement": "Jurkat NFAT luciferase EC50", "setting": "ACTR variant 103 [6]", "result": 3.65, "unit": "nM"},
      {"measurement": "Jurkat NFAT luciferase maximal luminescence (curve fit) (luminescence units)", "setting": "ACTR variant 103 [6]", "result": 66100},
      {"measurement": "maximum IL2 (curve fit)", "setting": "ACTR variant 103 [6]", "result": 572, "unit": "pg/mL"},
      {"measurement": "Jurkat NFAT luciferase EC50", "setting": "ACTR variant 129", "result": 3.38, "unit": "nM"},
      {"measurement": "Jurkat NFAT luciferase maximal luminescence (curve fit) (luminescence units)", "setting": "ACTR variant 129", "result": 77800},
      {"measurement": "Jurkat NFAT luciferase EC50", "setting": "ACTR variant 93", "result": 7.96, "unit": "nM"},
      {"measurement": "Jurkat NFAT luciferase maximal luminescence (curve fit) (luminescence units)", "setting": "ACTR variant 93", "result": 13100},
      {"measurement": "IFNγ release EC50", "setting": "ACTR variant 131", "result": 0.45, "unit": "nM"},
      {"measurement": "IL2 release EC50", "setting": "ACTR variant 131", "result": 0.91, "unit": "nM"},
      {"measurement": "maximum IFNγ (curve fit)", "setting": "ACTR variant 131", "result": 104000, "unit": "pg/mL"},
      {"measurement": "maximum IL2 (curve fit)", "setting": "ACTR variant 131", "result": 2040, "unit": "pg/mL"},
      {"measurement": "IFNγ release EC50", "setting": "ACTR variant 113 [7]", "result": 5.15, "unit": "nM"},
      {"measurement": "IL2 release EC50", "setting": "ACTR variant 113 [7]", "result": 7.92, "unit": "nM"},
      {"measurement": "maximum IFNγ (curve fit)", "setting": "ACTR variant 113 [7]", "result": 18600, "unit": "pg/mL"},
      {"measurement": "maximum IL2 (curve fit)", "setting": "ACTR variant 113 [7]", "result": 417, "unit": "pg/mL"},
      {"measurement": "IFNγ release EC50", "setting": "ACTR variant 115 [8]", "result": 1.57, "unit": "nM"},
      {"measurement": "IL2 release EC50", "setting": "ACTR variant 115 [8]", "result": 1.89, "unit": "nM"},
      {"measurement": "maximum IFNγ (curve fit)", "setting": "ACTR variant 115 [8]", "result": 92600, "unit": "pg/mL"},
      {"measurement": "maximum IL2 (curve fit)", "setting": "ACTR variant 115 [8]", "result": 1970, "unit": "pg/mL"},
      {"measurement": "IFNγ release EC50", "setting": "ACTR variant 116 [9]", "result": 4, "unit": "nM"},
      {"measurement": "IL2 release EC50", "setting": "ACTR variant 116 [9]", "result": 5.79, "unit": "nM"},
      {"measurement": "maximum IFNγ (curve fit)", "setting": "ACTR variant 116 [9]", "result": 47900, "unit": "pg/mL"},
      {"measurement": "maximum IL2 (curve fit)", "setting": "ACTR variant 116 [9]", "result": 764, "unit": "pg/mL"},
      {"measurement": "IFNγ release EC50", "setting": "ACTR variant 112 [10]", "result": 4.62, "unit": "nM"},
      {"measurement": "IL2 release EC50", "setting": "ACTR variant 112 [10]", "result": 8.6, "unit": "nM"},
      {"measurement": "maximum IFNγ (curve fit)", "setting": "ACTR variant 112 [10]", "result": 60300, "unit": "pg/mL"},
      {"measurement": "maximum IL2 (curve fit)", "setting": "ACTR variant 112 [10]", "result": 762, "unit": "pg/mL"},
      {"measurement": "IFNγ release EC50", "setting": "ACTR variant 114 [11]", "result": 1.37, "unit": "nM"},
      {"measurement": "IL2 release EC50", "setting": "ACTR variant 114 [11]", "result": 1.94, "unit": "nM"},
      {"measurement": "maximum IFNγ (curve fit)", "setting": "ACTR variant 114 [11]", "result": 117000, "unit": "pg/mL"},
      {"measurement": "maximum IL2 (curve fit)", "setting": "ACTR variant 114 [11]", "result": 1630, "unit": "pg/mL"},
      {"measurement": "IFNγ release EC50", "setting": "ACTR variant 103 [12]", "result": 4.48, "unit": "nM"},
      {"measurement": "IL2 release EC50", "setting": "ACTR variant 103 [12]", "result": 9.32, "unit": "nM"},
      {"measurement": "maximum IFNγ (curve fit)", "setting": "ACTR variant 103 [12]", "result": 86300, "unit": "pg/mL"},
      {"measurement": "maximum IL2 (curve fit)", "setting": "ACTR variant 103 [12]", "result": 1550, "unit": "pg/mL"}
    ]}
  ]
}
